From the supplement of paper PMC10126150
Values marked as one replicate rest on one cluster of the flow cell; about a third of the high ones do not repeat.

System: ATP
Assay: switch fluorescence ratio, 500 uM ATP over buffer (Cy3 cluster intensity, sum of 5 cycles each) (fold (ratio)); higher = stronger signal-on switching upon ATP binding; sequences stand for … in TCGTCGGCAGCGTCAGATGTGTATAAGAGACAGTTTTTTTTTTTTTTTTTTTTTTTTT…TC
Settings: aptamer strand: ATP DNA aptamer (quencher-CACCTGGGGGAGTATTGCGGAGGAAGG + anchor), 100 nM annealed; ATP concentration: 500 uM; one replicate
Summary of the method: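 Clusters carrying Cy3-labelled switching strands on a modified Illumina MiSeq flow-cell were annealed to 100 nM quencher-labelled ATP aptamer and imaged in selection buffer. They were imaged again after 15 min with 500 uM ATP at 22 °C, over five buffer/ATP cycles with NaOH stripping and re-annealing in between. For each cluster, the fluorescence ratio is the summed Cy3 intensity of the target cycles divided by that of the buffer cycles, averaged per switch-domain sequence. Clusters outside 100-1000 RFU were left out.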
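Note: ATP exposure 15 min at 22 °C before imaging.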

Sequence | switch fluorescence ratio
TCGGGCTAAA | 0.979
TGACGGAAAC | 1.8
GCGGCTAGTT | 1
TACTCTGAGG | 1.02
CGGAGATTTG | 0.975
ACCTTAGGGG | 1.23
ACGGGGCAAC | 1.07
CGATATCACA | 1.06
GGGTGAGCCA | 0.983
ATTGGAGATG | 0.947
GCGTATAGAC | 1.05
ACAGACGCTG | 1.04
ATCGGTACCG | 0.981
TAGCCGAGTT | 1.03
GATGATGCT | 0.946
GTGTTAATAA | 1.06
TAGTGCTTC | 1.05
CAGCTTGGTC | 1.02
GCTGACCTGT | 0.969
TGATCTGATA | 1.02
AAAGATGCT | 1.02
CGATGAAGCT | 0.976
GTTTTCATTT | 0.969
GGTCACACGG | 1.01
GACACGCTGG | 1.04
ACGGGCTCAG | 1.02

Sequence | switch fluorescence ratio
GGGTGGCGGG | 0.924
TGGACGAGAT | 1.07
ATAACGGGCT | 0.998
TACTAGTGCG | 0.981
GACGGATATG | 1
GTGTACGGAC | 1.15
CGAGAGTTCA | 0.959
TAAGGCTAAG | 1
AGCTGTTCTC | 1.06
AAGCTGGCAT | 0.967
CTGAGGCTAT | 2.87
TAGATTCGGA | 0.896
CTTCTAGGGA | 1
CCGGGGGCGC | 1.06
GCCTTATCAG | 0.971
AGAAAGAGGC | 1.03
TGGGTCACGG | 0.98
GTGCAAGTTC | 1.18
AAGAGGCCCT | 0.978
CCACCGGCTA | 3.61
TAGCAAACTA | 1.29
GCGGACCCAT | 1.07
AGGAGTGTG | 1.01
AAAGTCGTGA | 0.982
GGCAGGGGCG | 0.971
ATAACTAGCA | 0.988

Sequence | switch fluorescence ratio
AACCATGACC | 1.09
GTAATGGCTA | 0.992
AATACATCAA | 1.02
TGAAGGTAAT | 0.991
ACCGGTGCGT | 1.04
TATCTAAGGA | 0.987
GCGAGTTGAA | 0.988
TATCCGTGGT | 1.01
CGTGGCGTCC | 0.981
TCCTTATCAT | 1.02
CTTGACCGTT | 1
GATTGACCAA | 0.981
TTATTTGCTT | 1.03
ACATTCGGA | 0.957
ATGGCTGGTG | 1.01
GTTTAATGAA | 1.01
GCCAGCTTGG | 0.977
TTTGGCTCTC | 0.973
ATCGCGAGCG | 0.994
TAGCTGCGAA | 1.01
CTGACTCGCC | 2.55
TTGGGTAGTA | 1.03
ATAAAATGCG | 1.01
TAAGGGCTGT | 0.971
GTTAGTTAG | 1.01
AGAGGTCGGT | 1

Sequence | switch fluorescence ratio
AAATTATTTG | 1.05
TAACTTGTAG | 0.981
TCATTATAAG | 1.01
GCGCTCAGGG | 1.03
ACAAGCTGAA | 1.03
GCAGGGGCCG | 0.905
GCTGAGGGTC | 0.99
ATCAGGTCTT | 1.01
CGGTTGCTGT | 0.992
TATATCTGAA | 0.977
TAAAACAGCC | 0.983
GGTGCCCCCC | 1.05
ACGTGTCGT | 0.968
CTTATAAAGG | 0.998
CATCGACCTC | 1.03
TACGTATCCA | 1.13
AGCCGGGG | 0.977
CAAGATTAGC | 0.978
TGTGTTCTCG | 0.999
GTAACCTAAT | 1.03
ATCAGGAGG | 0.987
GGTAGTGCGA | 1
CGCAGATATC | 1.59
ATGGTTGGTG | 1.13
ACAGCGCTGT | 1.02
TTCTTACTTC | 1.05

Sequence | switch fluorescence ratio
TGTCCGGCGG | 1
GATGGCGGTC | 0.988
TTAGTCTTGC | 1.01
GCGATGTTGT | 1.01
GATTTACCTT | 1.12
ATATAGTACG | 1.03
CTTGTGGACC | 1.02
TTTTCCCCCA | 1.03
ACAGTAGTA | 1.07
CCCTAGG | 2.5
TTACCGTAAC | 1.43
CGTTTACCGG | 0.989
GCATAGGGGT | 1.05
TCAATACTCT | 2.79
GAATTGTGTT | 1.01
AAAAGTAATA | 0.951
ATCCCAAAAG | 1.02
CGCAGTTATG | 1.06
CAGTTACCGT | 0.979
GGCTTCTGTC | 1.01
GGGAGATCTA | 0.992
AGACTAAAGC | 0.993
GACCGGCGAG | 0.988
AAATTTGCCT | 1.1
GGTACTATTG | 0.993
GATGCATGTA | 0.965

Sequence | switch fluorescence ratio
AACGCTGGAC | 4.14
AGTGAAGAGG | 0.925
CGAACCAAAT | 0.99
ATCGCTGCAT | 1.08
TTCCCGGTAC | 3.53
GTGCGTGATG | 0.968
CCTAGTGAAA | 0.995
TTGGATGGCT | 1.04
CGACTCTGAG | 0.992
AACGTGTGA | 1
TTTTCAATT | 1.03
TCATCCTGTG | 1.01
GGTCGAAGGT | 0.996
TGTCACAGGA | 1.06
TGGTGTCATG | 0.964
CGGGGTGTAA | 0.965
TGTTGTCTTC | 0.982
AACTGTTCC | 1.23
CGTCAGCTCG | 1.06
ACCTATGCCG | 1.09
GCAATCGCGC | 1.2
GAATTGGCG | 0.986
CCGGGGTTAA | 2.56
AACCGGGCCG | 1.03
AATCCCGCTA | 1.86
ATCGTTTCTG | 0.949

Sequence | switch fluorescence ratio
TTTGTAAGG | 1
AAGGATACTT | 0.998
GCGTCCCGAG | 1.02
GGTCGACTGG | 1
TTTAGATGTT | 1.01
GGCTGCTCAG | 1.01
TGTCTGT | 1.12
TAAGGTCGT | 1.02
AGTCGTCCGT | 1.05
CATCCCCTGT | 1.05
AGATATGGCG | 0.946
TTAAAATGAA | 0.992
TAGATCACGC | 1
TGTGTGTCGA | 0.992
CAAGGCTGAA | 1.03
AGCTGCGGCG | 0.986
AGTGTGTTGG | 1.03
GGTCTGACAC | 0.966
ACGGTTTGAC | 1.06
ATTAGGTCTC | 0.994
TCGGGGAAGG | 1.02
GAGAGTGGCT | 0.991
CGGGTCCCAA | 1.02
CCTTCGTATG | 1.21
TTACAATAGA | 0.978
GAAGTGGATC | 0.974

Sequence | switch fluorescence ratio
AGGTGCATCA | 0.937
TCCAACTCTT | 0.956
CCCTGATATT | 1.04
TCCAAGAGTG | 1.07
GCGAGGCTCC | 1.34
TCATCAATGT | 0.978
TAGCAGGCT | 0.967
CTAGCTATTT | 1.03
AGTTTTACCG | 0.948
TTGTAGGAAA | 0.971
ACAATGGGGG | 0.997
GCCTACAGCC | 1.01
GAGACCAGGA | 1.08
GTTATGGGA | 0.99
ACGGACTTAA | 1.33
GCCGGACACT | 1.03
CTGGTGAACG | 1.03
AGACTCGCA | 1.12
GTGACACCGA | 1.04
